Reference: the supplement of paper PMC8748497
Some of the results follow.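 Rule for the calls: active = fold change of at least 2 over DMSO control; inactive = below 2-fold.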 Repeats are few or missing, and single values can be far off.

test system: HEK293 ARE/NRF2-luciferase reporter; assay: ARE/NRF2 luciferase reporter activity, fold change over DMSO control; higher = stronger NRF2/ARE reporter activation; settings: 10 µM; 24 h

| SMILES | ARE/NRF2 luciferase reporter activity |
| --- | --- |
| COC(=O)Nc1nc2cc(Sc3ccccc3)ccc2[nH]1 | active: 3.51 |
| O[C@H]1[C@H](O)[C@@H](O)[C@H](O)[C@@H](O)[C@H]1O | inactive: 1.03 |
| NS(=O)(=O)c1cc2c(cc1Cl)NC(C1CC3C=CC1C3)NS2(=O)=O (stereo not given) | inactive: 0.938 |
| CC1(C)C(O[C@@H]2OC[C@@H](O)[C@H](O)[C@H]2O)CC[C@]23CC24CC[C@]2(C)[C@@H]([C@@]5(C)CC[C@@H](C(C)(C)O)O5)[C@H](O)C[C@@]2(C)C4C[C@@H](O[C@@H]2O[C@H](CO)[C@@H](O)[C@H](O)[C@H]2O)C13 (stereo not given in full) | inactive: 0.867 |
| COc1ccc(-c2oc3cc(OC)c(OC)c(OC)c3c(=O)c2OC)cc1OC | inactive: 0.244 |
